IC50 is the fitted dose that halves viability relative to control wells, and lower means more sensitive; a limit (>, <) means that the fit lies beyond the doses tested. AUC sums up the same curve from the lowest dose to the 256-fold higher top dose; the more sensitive the line, the further below 1. For part of these data: An inferred top dose is not printed in the source and was worked back from the curve model. For part of these data: Drugs with an entry number were screened twice under separate entries, and the two screens often disagree.
How the values were obtained:
Assay in all cases: Viability of human cancer cell lines after 72 h of drug (GDSC screen)
LFM-A13 = compound: C/C(O)=C(\C#N)C(=O)Nc1cc(Br)ccc1Br [LFM-A13]; details: top dose 16 µM; top dose inferred
Method: (§1)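 Human cancer cell lines in 384-well plates, medium with 10% serum, drug for 72 h over a 256-fold dose range (nine 2-fold or five 4-fold steps up to the top dose). Adherent lines were fixed and stained with the nucleic acid dye Syto60, suspension lines read with resazurin; signal relative to control wells, capped at 0 and 100%. One two-parameter sigmoid per drug and line, fitted in a mixed model over all curves with the slope shared within a line.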

TW-37 = compound: CC(C)c1ccccc1Cc1cc(C(=O)Nc2ccc(S(=O)(=O)c3ccccc3C(C)(C)C)cc2)c(O)c(O)c1O [TW-37]; details: top dose 5 µM
Method: as §1

Bicalutamide = compound: CC(O)(CS(=O)(=O)c1ccc(F)cc1)C(=O)Nc1ccc(C#N)c(C(F)(F)F)c1 [Bicalutamide]; details: top dose inferred
Method: as §1

AUY922 = compound: CCNC(=O)c1noc(-c2cc(C(C)C)c(O)cc2O)c1-c1ccc(CN2CCOCC2)cc1 [AUY922]; details: top dose 0.256 µM; top dose inferred
Method: as §1

KIN001-270 = compound: Cc1ccc(Nc2cc(-c3cccc(N4C(=O)c5ccccc5C4=O)c3)ncn2)cc1NS(C)(=O)=O [KIN001-270]; details: top dose 20 µM; top dose inferred
Method: as §1

Nilotinib = compound: Cc1cn(-c2cc(NC(=O)c3ccc(C)c(Nc4nccc(-c5cccnc5)n4)c3)cc(C(F)(F)F)c2)cn1 [Nilotinib]; details: top dose 2 µM
Method: as §1

GNF-2 = compound: NC(=O)c1cccc(-c2cc(Nc3ccc(OC(F)(F)F)cc3)ncn2)c1 [GNF-2]; details: top dose 1.28 µM; top dose inferred
Method: as §1

Gemcitabine = compound: Nc1ccn([C@@H]2O[C@H](CO)[C@@H](O)C2(F)F)c(=O)n1 [Gemcitabine]; details: top dose 1.024 µM
Method: as §1

T0901317 = compound: O=S(=O)(c1ccccc1)N(CC(F)(F)F)c1ccc(C(O)(C(F)(F)F)C(F)(F)F)cc1 [T0901317]; details: top dose 10.24 µM; top dose inferred
Method: as §1

MP470 = compound: S=C(NCc1ccc2c(c1)OCO2)N1CCN(c2ncnc3c2oc2ccccc23)CC1 [MP470]; details: top dose 20 µM; top dose inferred
Method: as §1

[1] = top dose 1.024 µM, screen: GDSC drug entry 150
[2] = top dose 10 µM, screen: GDSC drug entry 1502

Cell Line | AUC (LFM-A13) | IC50 (LFM-A13) [µM] | AUC (TW-37) | IC50 (TW-37) [µM] | AUC (Bicalutamide; [1]) | IC50 (Bicalutamide; [1]) [µM] | AUC (Bicalutamide; [2]) | IC50 (Bicalutamide; [2]) [µM] | AUC (AUY922) | IC50 (AUY922) [µM] | AUC (KIN001-270) | IC50 (KIN001-270) [µM] | AUC (Nilotinib) | IC50 (Nilotinib) [µM] | AUC (GNF-2) | IC50 (GNF-2) [µM] | AUC (Gemcitabine) | IC50 (Gemcitabine) [µM] | AUC (T0901317) | IC50 (T0901317) [µM] | AUC (MP470) | IC50 (MP470) [µM]
SW982 (soft tissue, adherent) | 0.977 | > 16 | 0.38 | 0.144 | 0.984 | > 1.02 | 0.978 | > 10 | 0.455 | 0.012 | 0.96 | > 20 | 0.985 | > 2 | 0.985 | > 1.28 | 0.084 | < 0.004 | 0.984 | > 10.2 | 0.983 | > 20
MFH-ino (soft tissue, adherent) | 0.966 | > 16 | 0.457 | 0.234 | 0.983 | > 1.02 | 0.967 | > 10 | 0.471 | 0.0132 | 0.949 | > 20 | 0.981 | > 2 | 0.979 | > 1.28 | 0.137 | < 0.004 | 0.979 | > 10.2 | 0.91 | > 20
NCI-H2081 (small cell lung carcinoma, suspension) | 0.976 | > 16 | 0.86 | 4.61 | 0.989 | > 1.02 | 0.98 | > 10 | 0.845 | 0.202 | 0.984 | > 20 | 0.965 | > 2 | 0.989 | > 1.28 | 0.657 | 0.179 | 0.963 | > 10.2 | 0.895 | > 20
SNU-C1 (large intestine, suspension) | 0.974 | > 16 | 0.956 | > 5 | 0.979 | > 1.02 | 0.96 | > 10 | 0.975 | > 0.256 | 0.973 | > 20 | 0.978 | > 2 | 0.975 | > 1.28 | 0.972 | > 1.02 | 0.965 | > 10.2 | 0.848 | > 20
RXF393 (kidney, adherent) | 0.966 | > 16 | 0.671 | 1.14 | 0.976 | > 1.02 | 0.974 | > 10 | 0.384 | 0.00678 | 0.934 | > 20 | 0.924 | > 2 | 0.971 | > 1.28 | 0.661 | – | 0.972 | > 10.2 | 0.929 | > 20
Daudi (Burkitt lymphoma, suspension) | 0.972 | > 16 | 0.641 | 0.726 | 0.99 | > 1.02 | 0.99 | > 10 | 0.484 | 0.0146 | 0.934 | > 20 | 0.983 | > 2 | 0.988 | > 1.28 | 0.682 | 0.191 | 0.959 | > 10.2 | 0.664 | 3.34
NCI-H1092 (small cell lung carcinoma, suspension) | 0.99 | > 16 | 0.692 | 1.09 | 0.99 | > 1.02 | 0.985 | > 10 | 0.819 | 0.147 | 0.965 | > 20 | 0.977 | > 2 | 0.98 | > 1.28 | 0.933 | > 1.02 | 0.988 | > 10.2 | 0.881 | > 20
ST486 (Burkitt lymphoma, suspension) | 0.977 | > 16 | 0.533 | 0.379 | 0.981 | > 1.02 | 0.989 | > 10 | 0.546 | 0.021 | 0.818 | 9.67 | 0.903 | > 2 | 0.985 | > 1.28 | 0.278 | 0.0164 | 0.915 | > 10.2 | 0.929 | > 20
697 (lymphoblastic leukaemia, suspension) | 0.968 | > 16 | 0.345 | 0.128 | 0.992 | > 1.02 | 0.987 | > 10 | 0.506 | 0.0165 | 0.919 | > 20 | 0.93 | > 2 | 0.991 | > 1.28 | 0.15 | 0.00744 | 0.944 | > 10.2 | 0.556 | 1.72
NU-DUL-1 (B-cell lymphoma, suspension) | 0.99 | > 16 | 0.491 | 0.296 | 0.993 | > 1.02 | 0.988 | > 10 | 0.705 | 0.0526 | 0.95 | > 20 | 0.992 | > 2 | 0.993 | > 1.28 | 0.03 | < 0.004 | 0.971 | > 10.2 | 0.861 | 11.8
COR-L88 (small cell lung carcinoma, adherent) | 0.905 | > 16 | 0.718 | 1.47 | 0.984 | > 1.02 | 0.978 | > 10 | 0.808 | 0.164 | 0.975 | > 20 | 0.96 | > 2 | 0.984 | > 1.28 | 0.906 | > 1.02 | 0.974 | > 10.2 | 0.719 | 5.97
NB69 (neuroblastoma, adherent) | 0.964 | > 16 | 0.696 | 1.03 | 0.987 | > 1.02 | – | – | 0.497 | 0.0157 | 0.948 | > 20 | 0.986 | > 2 | 0.99 | > 1.28 | 0.261 | 0.0146 | 0.984 | > 10.2 | 0.955 | > 20
CTV-1 (acute myeloid leukaemia, suspension) | 0.97 | > 16 | 0.591 | 0.526 | 0.99 | > 1.02 | 0.986 | > 10 | 0.545 | 0.0207 | 0.932 | > 20 | 0.886 | 1.46 | 0.992 | > 1.28 | 0.184 | 0.0095 | 0.98 | > 10.2 | 0.953 | > 20
NEC8 (testis, adherent) | 0.986 | > 16 | 0.302 | 0.0962 | 0.991 | > 1.02 | – | – | 0.609 | 0.0303 | 0.841 | 11 | 0.987 | > 2 | 0.976 | > 1.28 | 0.242 | 0.0133 | 0.985 | > 10.2 | 0.99 | > 20
ARH-77 (myeloma, suspension) | 0.976 | > 16 | 0.653 | 0.818 | 0.987 | > 1.02 | 0.974 | > 10 | 0.569 | 0.0246 | 0.972 | > 20 | 0.987 | > 2 | 0.988 | > 1.28 | 0.216 | 0.00979 | 0.959 | > 10.2 | 0.976 | > 20
BE2-M17 (neuroblastoma, adherent) | 0.978 | > 16 | 0.174 | 0.0309 | 0.983 | > 1.02 | 0.963 | > 10 | 0.8 | 0.128 | 0.971 | > 20 | 0.97 | > 2 | 0.984 | > 1.28 | 0.72 | 0.274 | 0.939 | > 10.2 | 0.324 | 0.398
SBC-1 (small cell lung carcinoma, suspension) | 0.989 | > 16 | 0.596 | 0.566 | 0.978 | > 1.02 | 0.988 | > 10 | 0.939 | > 0.256 | 0.982 | > 20 | 0.989 | > 2 | 0.791 | 0.554 | 0.605 | 0.123 | 0.989 | > 10.2 | 0.652 | 3.24
KARPAS-45 (lymphoblastic leukaemia, suspension) | 0.958 | > 16 | 0.665 | 0.824 | 0.991 | > 1.02 | 0.989 | > 10 | 0.575 | 0.0248 | 0.951 | > 20 | 0.977 | > 2 | 0.991 | > 1.28 | 0.959 | > 1.02 | 0.937 | > 10.2 | 0.923 | > 20
MOLP-8 (myeloma, suspension) | 0.931 | > 16 | 0.581 | 0.514 | 0.987 | > 1.02 | 0.985 | > 10 | 0.417 | 0.00955 | 0.925 | > 20 | 0.974 | > 2 | 0.985 | > 1.28 | 0.129 | 0.00454 | 0.85 | 7.34 | 0.507 | 1.31
HUTU-80 (digestive system, adherent) | 0.98 | > 16 | 0.292 | 0.0913 | 0.991 | > 1.02 | 0.988 | > 10 | 0.44 | 0.0113 | 0.954 | > 20 | 0.983 | > 2 | 0.991 | > 1.28 | 0.017 | < 0.004 | 0.953 | > 10.2 | 0.679 | 3.57
SH-4 (melanoma, adherent) | 0.91 | > 16 | 0.436 | 0.191 | 0.974 | > 1.02 | 0.929 | > 10 | 0.633 | 0.0459 | 0.951 | > 20 | 0.97 | > 2 | 0.931 | > 1.28 | 0.364 | 0.0219 | 0.975 | > 10.2 | 0.923 | > 20
COR-L279 (small cell lung carcinoma, suspension) | 0.966 | > 16 | 0.903 | > 5 | 0.991 | > 1.02 | 0.971 | > 10 | 0.823 | 0.13 | 0.979 | > 20 | 0.991 | > 2 | 0.973 | > 1.28 | 0.471 | – | 0.978 | > 10.2 | 0.791 | 7.9
RF-48 (stomach, adherent) | 0.922 | > 16 | 0.714 | 1.37 | 0.985 | > 1.02 | 0.971 | > 10 | 0.499 | 0.0159 | 0.898 | > 20 | 0.983 | > 2 | 0.98 | > 1.28 | 0.203 | 0.00744 | 0.971 | > 10.2 | 0.926 | > 20
WSU-NHL (lymphoid neoplasm, suspension) | 0.978 | > 16 | 0.375 | 0.148 | 0.99 | > 1.02 | 0.99 | > 10 | 0.559 | 0.0227 | 0.923 | > 20 | 0.955 | > 2 | 0.99 | > 1.28 | 0.442 | 0.0454 | 0.982 | > 10.2 | 0.941 | > 20
